The list shows a part of the results. One pool of 16,384 single-stranded DNAs met each Rep nickase domain in vitro for 1 h at 37 °C with 3 µM enzyme; only the middle of the 90-letter strands is printed. The score is log2 (uncut reads / reads without enzyme); strong cutting gives strongly negative numbers. There is no active / inactive call. The scaling is to total reads, so uncut sequences can rise above 0 when many others are cut.
Experiments:
Assay in all cases: uncleaved DNA left, log2 of reads against the no-enzyme library (log2 ratio); higher = less cleavage (more negative = more Rep cleavage of the k-mer); sequences stand for … in CTCGTCCG…ACCGGAGA
[1] = system: T1, Rep nickase domain of Muscovy duck circovirus
T1 sequence (Rep 1-111, printed without the tag): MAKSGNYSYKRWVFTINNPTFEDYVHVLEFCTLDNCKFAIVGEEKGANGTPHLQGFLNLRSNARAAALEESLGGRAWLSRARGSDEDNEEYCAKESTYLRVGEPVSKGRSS
Description: (§1)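 A pool of 90-nt single-stranded DNAs with seven random bases just before the constant AC of the nick site (name = the seven bases) was cut by 3 µM recombinant His6-SUMO-tagged Rep nickase domain (300 nM DNA, 50 mM HEPES pH 8.0, 50 mM NaCl, 1 mM MnCl2, 1 h, 37 °C, three replicates). Uncut DNA was amplified and sequenced.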

[2] = system: T2, Rep nickase domain of banana bunchy top virus
T2 sequence (Rep 1-94, printed without the tag): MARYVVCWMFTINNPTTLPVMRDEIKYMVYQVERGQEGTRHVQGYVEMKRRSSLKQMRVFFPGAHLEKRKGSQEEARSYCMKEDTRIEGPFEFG
Description: as §1

[3] = system: T3, Rep nickase domain of cabbage leaf curl virus
T3 sequence (Rep 1-116, printed without the tag): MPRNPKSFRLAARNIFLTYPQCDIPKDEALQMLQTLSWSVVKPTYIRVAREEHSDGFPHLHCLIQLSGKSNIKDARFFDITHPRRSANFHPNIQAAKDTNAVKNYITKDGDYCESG
Description: as §1

[4] = system: T4, Rep nickase domain of chickpea chlorotic dwarf virus
T4 sequence (Rep 1-124, printed without the tag): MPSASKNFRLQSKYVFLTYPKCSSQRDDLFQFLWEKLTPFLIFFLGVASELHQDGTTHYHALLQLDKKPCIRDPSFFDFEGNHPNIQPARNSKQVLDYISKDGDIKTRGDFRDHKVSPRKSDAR
Description: as §1

[5] = system: T5, Rep nickase domain of faba bean necrotic yellows virus
T5 sequence (Rep 1-98, printed without the tag): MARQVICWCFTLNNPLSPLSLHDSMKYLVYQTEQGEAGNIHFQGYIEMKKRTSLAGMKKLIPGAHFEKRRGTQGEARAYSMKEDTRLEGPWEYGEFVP
Description: as §1

[6] = system: T6, Rep nickase domain of maize striate mosaic virus
T6 sequence (Rep 1-117, printed without the tag): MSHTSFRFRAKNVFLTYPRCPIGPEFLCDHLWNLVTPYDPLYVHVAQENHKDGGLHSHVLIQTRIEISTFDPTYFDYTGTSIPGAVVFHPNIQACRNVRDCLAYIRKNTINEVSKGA
Description: as §1

[7] = system: T7, Rep nickase domain of porcine circovirus 2
T7 sequence (Rep 2-116, printed without the tag): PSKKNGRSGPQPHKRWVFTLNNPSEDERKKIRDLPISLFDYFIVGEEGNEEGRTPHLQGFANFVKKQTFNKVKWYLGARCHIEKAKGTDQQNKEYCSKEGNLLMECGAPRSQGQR
Description: as §1

[8] = system: T8, Rep nickase domain of tomato golden mosaic virus
T8 sequence (Rep 1-124, printed without the tag): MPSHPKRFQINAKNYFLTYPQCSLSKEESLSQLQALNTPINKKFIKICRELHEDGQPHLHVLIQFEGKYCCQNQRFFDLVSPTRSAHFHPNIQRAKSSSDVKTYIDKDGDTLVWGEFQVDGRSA
Description: as §1

[9] = system: T9, Rep nickase domain of tomato yellow leaf curl virus
T9 sequence (Rep 1-136, printed without the tag): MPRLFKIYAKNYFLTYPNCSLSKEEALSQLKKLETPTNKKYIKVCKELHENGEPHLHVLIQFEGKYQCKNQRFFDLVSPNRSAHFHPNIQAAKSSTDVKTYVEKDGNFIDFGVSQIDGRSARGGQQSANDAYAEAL
Description: as §1

[10] = system: T10, Rep nickase domain of wheat dwarf virus
T10 sequence (Rep 1-137, printed without the tag): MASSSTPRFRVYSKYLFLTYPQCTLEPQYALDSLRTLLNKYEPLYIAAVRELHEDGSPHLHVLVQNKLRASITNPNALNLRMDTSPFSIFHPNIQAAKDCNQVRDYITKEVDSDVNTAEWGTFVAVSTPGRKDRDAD
Description: as §1

Row | Sequence | uncleaved DNA left (log2) [1] | uncleaved DNA left (log2) [2] | uncleaved DNA left (log2) [3] | uncleaved DNA left (log2) [4] | uncleaved DNA left (log2) [5] | uncleaved DNA left (log2) [6] | uncleaved DNA left (log2) [7] | uncleaved DNA left (log2) [8] | uncleaved DNA left (log2) [9] | uncleaved DNA left (log2) [10]
1 | CCCTAAG | 0.173 | 0.137 | -0.636 | 0.0364 | 0.122 | -0.927 | 0.259 | 0.169 | 0.326 | 0.0448
2 | CAGCGCC | -0.153 | -0.153 | -0.334 | -0.436 | -0.111 | -0.765 | -0.0219 | -0.17 | -0.107 | -0.23
3 | ATTGGCG | 0.0975 | -0.0469 | -0.15 | 1.3 | 0.0628 | 0.792 | 0.133 | 0.142 | 0.0541 | -0.103
4 | GATTTAT | -2.26 | -1.45 | 0.288 | 0.684 | -0.182 | 1.46 | -2.73 | 0.0434 | 0.187 | 0.0927
5 | AAGGAAT | 0.16 | 0.192 | 0.283 | 1.76 | 0.127 | 1.95 | 0.274 | 0.119 | 0.033 | 0.154
6 | GGCAGTC | 0.00697 | 0.0753 | 0.712 | 1.47 | 0.0627 | 1.97 | 0.101 | 0.125 | 0.0898 | 0.139
7 | CTGCACA | -0.21 | -0.0784 | -0.297 | -1.18 | -0.0938 | -0.848 | -0.209 | -0.214 | -0.191 | -0.113
8 | TGCCTAT | 0.0635 | -0.0911 | 0.133 | -0.36 | -0.00537 | -0.292 | -0.0159 | -0.025 | 0.0592 | 0.0317
9 | GCGCACG | 0.00391 | -0.0743 | -0.332 | -0.233 | 0.0353 | -0.456 | 0.0783 | 0.054 | -0.0636 | -0.137
10 | GAGCATG | 0.0905 | 0.142 | -0.0381 | 0.713 | -0.0157 | 1.32 | 0.154 | 0.0364 | -0.0278 | 0.136
11 | CTAATTT | 0.0475 | -0.0693 | 0.225 | -2.07 | 0.0393 | -0.549 | -0.369 | 0.194 | 0.099 | 0.048
12 | CCATCTG | 0.0296 | -0.0385 | -0.107 | 0.121 | 0.0573 | -0.25 | 0.104 | -0.0138 | -0.126 | 0.0101
13 | GATGCCG | 0.0763 | 0.0179 | -0.765 | -0.351 | 0.0208 | -0.913 | 0.191 | -0.0577 | -0.108 | -0.00787
14 | ACACGGT | 0.0372 | 0.00915 | -0.514 | -0.691 | -0.112 | -0.606 | -0.00767 | 0.0413 | -0.115 | -0.182
15 | CAGGCGA | 0.101 | -0.0838 | -0.609 | -0.516 | 0.0512 | -0.636 | 0.134 | 0.128 | 0.054 | -0.0124
16 | TGTTAAC | 0.0347 | -0.00837 | 0.316 | 0.161 | -0.0905 | 1.4 | 0.0476 | 0.0171 | 0.0425 | 0.0128
17 | TCCCCTT | -0.0926 | -0.0557 | 0.032 | -1.41 | -0.103 | -0.0559 | -0.378 | -0.0209 | 0.0826 | -0.0542
18 | GTATCCC | 0.134 | 0.0776 | 0.312 | 0.83 | 0.0506 | 1.57 | -0.0625 | 0.13 | 0.0854 | 0.103
19 | GTGGCTC | 0.0657 | 0.074 | 0.368 | 0.978 | -0.0565 | 1.88 | 0.0219 | 0.0476 | 0.0353 | 0.0465
20 | TGTGCGT | 0.0557 | -0.152 | -0.813 | -0.192 | -0.0395 | -0.888 | -0.00261 | -0.0762 | -0.0895 | -0.216
21 | CAATGCC | 0.0213 | -0.127 | -1.83 | -2.49 | -0.0331 | -1.38 | -1.18 | -0.131 | 0.0363 | -0.366
22 | TTTCAGA | 0.0307 | -0.0899 | 0.0812 | -0.242 | -0.123 | -0.553 | 0.0229 | -0.0365 | -0.0554 | -0.121
23 | GACTTCT | -2.09 | -1.4 | 0.0945 | -1.89 | 0.0489 | 0.732 | -2.86 | -0.0553 | -0.0863 | -0.0587
24 | GGAGGGT | 0.151 | 0.0374 | 0.51 | 1.33 | 0.104 | 1.67 | 0.249 | 0.189 | -0.0424 | 0.0767
25 | GGCCCTC | -0.0168 | -0.0295 | 0.398 | 1.19 | -0.0725 | 1.57 | 0.0476 | -0.177 | 0.0277 | 0.0336
26 | TGTGCAA | -0.0413 | 0.153 | 0.256 | 0.658 | 0.0846 | 0.58 | 0.0819 | 0.0209 | 0.108 | 0.063
27 | GGAGCAG | -0.0337 | 0.091 | 0.685 | 1.77 | -0.0169 | 1.87 | 0.246 | -0.00474 | -0.106 | 0.128
28 | AAAATAT | -0.115 | -0.0895 | -1.65 | -2.41 | -0.0274 | -0.417 | -0.74 | -0.094 | -0.0387 | -0.496
29 | GGGTCCC | -0.104 | 0.0142 | 0.505 | 1.43 | -0.0867 | 1.89 | 0.103 | -0.0468 | 0.0181 | 0.0982
30 | ACGTCTC | -0.00936 | 0.0149 | 0.0219 | -0.0188 | -0.0129 | -0.176 | -0.114 | -0.0482 | -0.0446 | 0.0169

— the supplement of paper PMC7826260
